Assay results published in PubChem BioAssay AID504845 (National Center for Advancing Translational Sciences (NCATS), 2011).
Out of some 390,000 compounds screened, about 150 (0.038%) were called active. This list was built around the results that the source calls inconclusive (neither active nor inactive); the mix of calls is not that of the screen. The call rests on the fitted dose curve; in most records, active means well fitted inhibition curve with a large enough effect; inconclusive means small, poorly fitted or top-dose-only effect; inactive means no such curve, though single readings can be large or run the other way. A potency beside an inconclusive call is a rough fit, not a confirmed value.

biological target: Regulator of G-protein signaling 4 (Homo sapiens) (UniProt P49798); test: Inhibitors of Regulator of G Protein Signaling (RGS) 4: qHTS; details: Transcreener GDP fluorescence polarization, RGS4-accelerated GTP hydrolysis; series mostly up to 114 µM; further: nearly all actives have a fitted effect of over 75% in size
Sequence of UniProt P49798 (P49798 whole entry, looked up): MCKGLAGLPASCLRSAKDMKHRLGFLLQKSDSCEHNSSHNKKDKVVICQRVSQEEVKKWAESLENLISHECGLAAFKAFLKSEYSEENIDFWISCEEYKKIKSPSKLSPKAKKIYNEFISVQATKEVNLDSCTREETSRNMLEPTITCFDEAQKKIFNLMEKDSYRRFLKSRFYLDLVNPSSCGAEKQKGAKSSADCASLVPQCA
How it was run: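 MLSMR compounds (23 nl, pin-transferred) preincubated 10 min at room temperature with a 500nM (2x) first reagent, then RGS4 at 900nM (2x) plus Transcreener GDP mix added; fluorescence polarization (620/688 nm) read before and after 90 min at 30 °C.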
On the % scale 0 is the no-effect control and ±100 the full control effect; potency means the concentration at half of the fitted maximal effect; tags describe the fitted curve by direction and shape.

Q: Which Potency does the source give for `CCc1nnc(NC(=O)c2nc(S(=O)(=O)Cc3ccc(C)cc3)ncc2Cl)s1` here?
A: inconclusive: 79.4 µM [inhibitor, partial curve, poor fit]

Q: Which Potency does the source give for `CCOc1cc(Br)ccc1S(=O)(=O)NCc1ccccc1` here?
A: inconclusive: 89.1 µM [inhibitor, single point]

Q: For `O=C(Nc1nccs1)c1ccc(-c2ccc([N+](=O)[O-])cc2)o1`, which Potency is on record?
A: inconclusive: 44.7 µM [inhibitor, partial curve, poor fit]

Q: Which Potency does the source give for `Cc1ccc2c(CC(=O)Nc3sccc3C(N)=O)coc2c1` here?
A: inactive

Q: How did the Potency turn out when `O=C(O)C1C2C=CC(O2)C1C(=O)Nc1ccc(S(=O)(=O)Nc2ccccc2)cc1` (stereo unspecified) was run?
A: inconclusive: 79.4 µM [inhibitor, partial curve, poor fit]

Q: `O=C(CSCc1ccccc1)NNC(=S)Nc1cccc(Cl)c1Cl` was tested. Which Potency did it give?
A: inconclusive: 89.1 µM [inhibitor, partial curve, poor fit]

Q: For `COc1cc([N+](=O)[O-])cc(/C=N/NC(=O)Cn2nccc2C)c1O`, which activity change, negative = inhibition is on record?
A: inactive: -39% [at 11.4 µM]

Q: How did the Potency turn out when `CCc1ccc(C(=O)c2cn(CC(=O)Nc3cccc(OC)c3)c3ccc(OC)cc3c2=O)cc1` was run?
A: inconclusive: 31.6 µM [inhibitor, partial curve, poor fit]

Q: With `COCCNC(=O)CSc1ccc(C)cc1` as the compound, how does the Potency read?
A: inactive

Q: Which Potency does the source give for `CC1=NOC(=O)/C1=C\c1ccc2c(c1)OCO2` here?
A: inconclusive: 20 µM [inhibitor, full curve, poor fit]

Q: For `O=C(NCCc1ccccc1)c1cnc2sc(N3CCCCCC3)nn2c1=O`, which Potency is on record?
A: inactive

Q: `O=C(N/N=C/c1c(O)n(-c2ccccc2Cl)c(=O)c2ccccc12)c1cccnc1` was tested. Which Potency did it give?
A: inactive

Q: With `COc1ccc(N2CCN(C(=O)Cc3ccc(OC)c(OC)c3)CC2)cc1` as the compound, how does the Potency read?
A: inconclusive: 22.4 µM [inhibitor, full curve, poor fit]

Q: With `O=C1c2cccc(OCc3ccc(F)cc3)c2CCN1Cc1ccc(F)cc1` as the compound, how does the Potency read?
A: inactive

Q: Which Potency does the source give for `C=CCSc1nc(N)c(C(=O)Nc2ccccc2)cc1C#N` here?
A: inconclusive: 56.2 µM [inhibitor, partial curve, poor fit]

Q: For `COCCN1CCN(c2cc(-c3ccccc3)nc3cc(-c4cccc(F)c4)nn23)CC1`, which activity change, negative = inhibition is on record?
A: inactive: 10.2% [at 11.4 µM]

Q: How did the Potency turn out when `CCN(C(=O)COC(=O)CCOc1ccc(C(C)(C)C)cc1)c1c(N)n(Cc2ccccc2)c(=O)[nH]c1=O` was run?
A: inactive

Q: `O=Cc1c(OCc2ccccc2)ccc2ccccc12` was tested. Which Potency did it give?
A: inconclusive: 79.4 µM [inhibitor, partial curve, poor fit]

Q: For `CCN(C(=O)COC(=O)c1ccccc1SCC(=O)N1CCCC1)C1CCS(=O)(=O)C1` (stereo unspecified), which Potency is on record?
A: inconclusive: 89.1 µM [inhibitor, single point]

Q: How did the Potency turn out when `CCCc1cc(C(N)=O)c(NC(=O)C2CCCO2)s1` (stereo unspecified) was run?
A: inconclusive: 17.8 µM [inhibitor, full curve, poor fit]

Q: With `CCOC(=O)c1c(C)n(-c2ccc(C)cc2)c2c(C(C(C)=O)C(=O)O)c(Br)c(O)c(O)c12` (stereo unspecified) as the compound, how does the Potency read?
A: inconclusive: 31.6 µM [inhibitor, partial curve, poor fit]

Q: With `CCC1(CC)NC(=O)N(CC(=O)N2N=C(c3ccc(Cl)cc3)CC2c2ccco2)C1=O` (stereo unspecified) as the compound, how does the Potency read?
A: inconclusive: 79.4 µM [inhibitor, partial curve, poor fit]

Q: How did the Potency turn out when `Cc1cc(OC(C)C(=O)Nc2c(C(=O)c3ccc(F)cc3)oc3ccccc23)ccc1Cl` (stereo unspecified) was run?
A: inactive

Q: Which Potency does the source give for `Cc1cccc(-n2c(=S)[nH]c3sc4c(c3c2=O)CCc2ccccc2-4)c1` here?
A: inconclusive: 28.2 µM [inhibitor, full curve, poor fit]

Q: For `Cn1cnnc1Sc1ccc(C(F)(F)F)cc1[N+](=O)[O-]`, which Potency is on record?
A: inactive

Q: For `O=C(O)c1ccc2c(c1)-c1cc(C(=O)O)ccc1S2(=O)=O`, which Potency is on record?
A: inconclusive: 79.4 µM [inhibitor, partial curve, poor fit]

Q: `CC(=NNC(=S)N1CCCCCC1)c1cccc2cccnc12` was tested. Which Potency did it give?
A: inconclusive: 100 µM [inhibitor, partial curve, poor fit]

Q: Which Potency does the source give for `Cc1ccc(S(=O)(=O)/N=C2/C=C(C3C(=O)CC(C)(C)CC3=O)C(=O)c3ccccc32)cc1` here?
A: inconclusive: 89.1 µM [inhibitor, single point]

Q: `CCCCn1c(-c2csc3c2CCC(C)C3)n[nH]c1=S` (stereo unspecified) was tested. Which Potency did it give?
A: inconclusive: 17.8 µM [inhibitor, full curve, poor fit]

Q: How did the Potency turn out when `CC1=Nc2cc(C(=O)NCC3CCCO3)ccc2Sc2ccc(Br)cc21` (stereo unspecified) was run?
A: inactive

Q: Which Potency does the source give for `COC(=O)COc1ccc(NC(=O)Cn2nc(-c3ccccc3)c3ccccc3c2=O)cc1` here?
A: inconclusive: 50.1 µM [inhibitor, partial curve, poor fit]

Q: For `Cc1cc2c(N=O)c(NO)ccc2[nH]1`, which Potency is on record?
A: inactive

Q: How did the Potency turn out when `CN(C)c1ccc(-c2nnn(CC(=O)NCc3ccc4c(c3)OCO4)n2)cc1` was run?
A: inactive

Q: How did the Potency turn out when `COc1ccc(/C=N/n2cncn2)cc1COc1ccc(NC(C)=O)cc1` was run?
A: inconclusive: 39.8 µM [inhibitor, partial curve, poor fit]

Q: With `O=C(O)/C=C/C(=O)c1ccc2c(c1)NC(=O)CO2` as the compound, how does the Potency read?
A: inconclusive: 28.2 µM [inhibitor, full curve, poor fit]

Q: `CCN(CC)S(=O)(=O)c1ccc(N2CCOCC2)c(NS(=O)(=O)c2ccc(C(C)C)cc2)c1` was tested. Which Potency did it give?
A: inconclusive: 50.1 µM [inhibitor, partial curve, poor fit]

Q: Which Potency does the source give for `O=C1S/C(=C\c2ccc(N3CCOCC3)o2)C(=O)N1c1ccccc1` here?
A: inconclusive: 17.8 µM [inhibitor, full curve, poor fit]

Q: For `CCOc1ccc(C(=O)CCC(=O)N(CC)CC(=O)NCc2ccc(Cl)cc2)cc1`, which Potency is on record?
A: inactive

Q: With `COc1ccc2c(c1)c1nc3ccccc3nc1n2Cc1ccc(OC)c(OC)c1` as the compound, how does the Potency read?
A: inconclusive: 89.1 µM [inhibitor, partial curve, poor fit]

Q: With `CCOC(=O)/C(C#N)=C1/C(=O)N(Cc2ccccc2)c2ccccc21` as the compound, how does the Potency read?
A: inconclusive: 44.7 µM [inhibitor, partial curve, poor fit]

Q: For `COc1ccc(/C=N/NC(=O)C(=O)N2CCCC2)cc1`, which Potency is on record?
A: inconclusive: 89.1 µM [inhibitor, single point]
